Test results taken from PubChem BioAssay AID540317 (National Center for Advancing Translational Sciences (NCATS), 2011).
Several values for one entry are separate records, joined by “and”; a condition that tells them apart may be missing. Identical values can stand only once. The whole screen tested about 390,000 compounds, of which about 2,200 (0.56%) were called active. The inconclusive results got no clear call from the source; some entries with a clear call stand among them for comparison. Calls follow the shape of the dose curve; as a rule, active = well fitted inhibition curve with a large enough effect; inconclusive = small, poorly fitted or top-dose-only effect; inactive = no such curve, though single readings can be large or run the other way. Potencies of inconclusive entries are doubtful fits and often do not repeat.

Each molecule was assayed against Chromobox protein homolog 1 (Homo sapiens) (UniProt P83916) (assay: HTS for Inhibitors of HP1-beta Chromodomain Interactions with Methylated Histone Tails). Settings: AlphaScreen HP1-beta / biotin-H3K9me3 peptide binding; series mostly up to 114 µM.
Sequence of UniProt P83916 (P83916 whole entry, looked up): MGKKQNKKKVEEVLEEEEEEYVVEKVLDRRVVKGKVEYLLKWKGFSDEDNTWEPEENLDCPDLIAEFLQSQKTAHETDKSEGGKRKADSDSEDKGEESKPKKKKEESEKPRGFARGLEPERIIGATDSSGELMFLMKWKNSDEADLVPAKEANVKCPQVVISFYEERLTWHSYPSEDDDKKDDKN
Outline: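 HP1-beta protein (50 nM final) preincubated 30 min at room temperature with biotinylated H3(1-18)K9me3 peptide (50 nM) in PBS pH 7.4, 0.01% Tween-20, then compound added for 30 min. AlphaScreen streptavidin donor/nickel chelate acceptor beads (10 ug/mL final), 30 min dark, luminescence read.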
Also: nearly all actives have a fitted effect of over 70% in size.
Potency is read from the fitted curve at half-maximal effect; tags tell the direction and shape of the fitted curve.

Structure (SMILES)	Potency
O=[N+]([O-])c1ccc(Cl)cc1CN1CCCCCC1	inconclusive: 20 µM [inhibitor, full curve]
CCN(c1ccc(NC(=O)COC(=O)/C=C/c2cccs2)cc1)C(C)C	active: 35.5 µM
O=[N+]([O-])c1ccc(N2CCN(c3ccc(F)cc3)CC2)cn1	inconclusive: 79.4 µM [inhibitor, partial curve, poor fit]
S=C(NCCc1ccccc1)Nc1ccccn1	inconclusive: 39.8 µM [inhibitor, single point]
CC(C)(C)c1ccc(C2CC2C(=O)N/N=C\c2ccc[nH]2)cc1 (configuration not stated)	inconclusive: 31.6 µM [inhibitor, partial curve]
Cc1cc(C(c2ccc(C)o2)c2ccc(C)o2)c(O)c([N+](=O)[O-])c1	active: 15.8 µM
CCOc1cc(CNS(=O)(=O)c2ccc3c(c2)C(C)(C)C(=O)N3)cc(OCC)c1OCC	inconclusive: 5.01 µM [inhibitor, full curve, poor fit]
O=C(CN1CCc2ccccc2C1)c1cccs1	inconclusive: 35.5 µM [inhibitor, partial curve]
Cc1ccc(C=C2C(=O)c3ccccc3C2=O)o1	inconclusive: 31.6 µM [inhibitor, partial curve]
CCOc1ccc(OCCNCc2ccc(OC(C)C(=O)N(C)C)c(OCC)c2)cc1 (configuration not stated)	inconclusive: 39.8 µM [inhibitor, partial curve]
COc1cccc(COCC(O)Cn2cnc3cc(C)c(C)cc32)c1 (configuration not stated)	inconclusive: 14.1 µM [inhibitor, full curve, poor fit]
Cc1ccc(C(=O)c2oc3ccc(Cl)cc3c2NC(=O)CN2CCN(C)CC2)cc1	inactive
CC(=O)Nc1ccc(NC(=O)CSC2=NCCS2)cc1	inactive
CN(C)C1=NC[C@H](Cc2ccccc2)N1CCCC1CCCCC1	inactive
O=C1NCCN(CC2CCN(CC3CCCC3)CC2)C1=O	inactive
COc1cc(O)c(C(CCN2CCCC(C)C2)c2ccc(N(C)C)cc2)c(OC)c1 (configuration not stated)	inconclusive: 39.8 µM [inhibitor, partial curve, poor fit] and inconclusive: 22.4 µM [inhibitor, full curve]
O=C(O)CCCN1C(=O)/C(=C\c2ccco2)SC1=S	inconclusive: 50.1 µM [inhibitor, partial curve]
O=C(Cc1coc2cc3c(cc12)CCC3)OCc1cc(=O)n2c(n1)sc1ccccc12	inconclusive: 7.94 µM [inhibitor, full curve]
CCC(=O)N1c2ccc(S(=O)(=O)CCC(=O)N3CCN(c4cc(C)ccc4C)CC3)cc2CC1C (configuration not stated)	inactive
O=C(CSc1nc2nccnc2c(=O)n1CCc1c[nH]c2ccccc12)Nc1ccccc1	inactive
O=C(Cn1nc(-c2ccco2)ccc1=O)Nc1ccc(Br)cc1	inconclusive: 56.2 µM [inhibitor, single point]
COc1ccccc1C1CCN(c2ccc(CO)cc2[N+](=O)[O-])CC1	inconclusive: 56.2 µM [inhibitor, partial curve]
CC(=NNC(=S)N1CCN(c2ccccn2)CC1)c1nccs1	inconclusive: 15.8 µM [inhibitor, partial curve, poor fit]

Structure (SMILES)	Potency
CCN1C(=NCCN2CCOCC2)N[C@@H](c2ccccc2)C(C(=O)OC)=C1C	inactive
COc1ccc(CNC2CCCc3ccccc32)c(OC)c1 (configuration not stated)	inconclusive: 56.2 µM [inhibitor, single point]
COc1cccc(NC(=O)[C@@H](NC(=O)N2CCn3c2nc2ccccc23)C(C)C)c1	inactive
COc1ccc(CN2CCN(Cc3ccc4ccccc4c3)CC2)cc1OC	active: 25.1 µM
CC(=O)Sc1nc(-c2ccccc2)[nH]c1S(=O)(=O)c1ccc(C)cc1	inconclusive: 7.94 µM [inhibitor, full curve]
CC(=O)Nc1ccc2c(c1)Cc1cc(N3C(=O)C=CC3=O)ccc1-2	inconclusive: 7.94 µM [inhibitor, full curve, poor fit]
COc1ccc2c(c1)[n+](=O)c(C(C)=O)c(C)n2[O-]	inconclusive: 28.2 µM [inhibitor, single point]
C=CC(=O)Nc1cccc(N(C)c2ccnc(Nc3ccc(N4CCN(C)CC4)cc3)n2)c1	active: 50.1 µM
COc1ccc(-n2c(Cc3cccn3C)nnc2SCC(=O)Nc2nccs2)cc1	inactive
CCOP(=O)(OCC)C(C#N)=C1SCN(c2ccccc2)CS1	inconclusive: 44.7 µM [inhibitor, partial curve]
COCCN(Cc1nc(-c2ccc(-c3ccccc3)cc2)oc1C)C(C)C	inactive
CCOc1ccccc1NC1(c2ccccc2)C(=O)c2ccccc2C1=O	inconclusive: 15.8 µM [inhibitor, full curve]
Cc1cc(S(=O)(=O)Nc2ccc(C(=O)N3CCN(c4ccccc4O)CC3)cc2)ccc1F	inactive
CC1CCCN(CCSc2ccc(Cl)cc2)C1 (configuration not stated)	inconclusive: 17.8 µM [inhibitor, full curve, poor fit]
O=C(Nc1ccc(Cl)c(S(=O)(=O)N2CCOCC2)c1)c1cc(=O)[nH]c2ccccc12	inactive
CCOC(=O)c1cnc(SSc2ncc(C(=O)OCC)c(N)n2)nc1N	inconclusive: 7.94 µM [inhibitor, partial curve, poor fit]
O=C1COc2ccc(NC(=O)c3ccccc3C(=O)O)cc2N1	inactive
Cc1ccc(CNC(=O)CN(C)C2=NS(=O)(=O)c3ccccc32)cc1	inconclusive: 89.1 µM [inhibitor, single point]
COc1ccc(OC)c(N=Nc2c(O)c3ccccc3[nH]c2=O)c1	inconclusive: 35.5 µM [inhibitor, partial curve]
COc1ccc(/C=C2\CN(Cc3ccccc3)C/C(=C\c3ccc(OC)cc3)C2=O)cc1	inconclusive: 25.1 µM [inhibitor, single point]
CC(C)c1ccc(Nc2nnc(SCC(=O)c3nnc(-c4ccccc4)o3)s2)cc1	inconclusive: 39.8 µM [inhibitor, partial curve]
CC(C)c1ccc(S(=O)(=O)Nc2ccc(SC(F)F)cc2)cc1	inactive
Clc1ccc(/C=N/N2CCN(Cc3ccccc3)CC2)cc1	inconclusive: 50.1 µM [inhibitor, partial curve]

Structure (SMILES)	Potency
CCn1c2ccccc2c2cc(CN3CCN(Cc4cc(OC)c(O)c(OC)c4)CC3)ccc21	inconclusive: 14.1 µM [inhibitor, full curve]
CCOc1ccc(C(=O)Nc2cc(NC(=O)c3ccc(OCC)c(Cl)c3)cc(C(=O)O)c2)cc1Cl	inconclusive: 44.7 µM [inhibitor, partial curve]
O=[N+]([O-])c1ccc(Cl)cc1NCc1cccnc1	inconclusive: 79.4 µM [inhibitor, single point]
Cc1c(C(=O)O)c(O)cc2c1C(=O)c1c(O)c([C@@H]3O[C@H](CO)[C@@H](O)[C@H](O)[C@H]3O)c(O)c(O)c1C2=O	inconclusive: 31.6 µM [inhibitor, partial curve]
COc1ccc(NC(=O)CSc2ncc(-c3ccc(F)cc3)n2Cc2ccco2)cc1	inconclusive: 39.8 µM [inhibitor, partial curve, poor fit]
N#Cc1nc(Cc2cccc3ccccc23)oc1N1CCOCC1	inconclusive: 31.6 µM [inhibitor, partial curve, poor fit]
CC(OC(=O)CCc1c[nH]c2ccccc12)C(=O)c1ccccc1 (configuration not stated)	inconclusive: 89.1 µM [inhibitor, single point]
CCOC(=O)c1ccccc1NC(=O)COC(=O)c1cc([N+](=O)[O-])ccc1N1CCOCC1	inconclusive: 20 µM [inhibitor, full curve]
Brc1ccc(CSc2nnc(-c3ccccn3)n2Cc2ccco2)cc1	inactive
O=S(=O)(Nc1cccc2ccccc12)c1ccc2ccccc2c1	inconclusive: 89.1 µM [inhibitor, partial curve, poor fit]
COc1ccc(NC(=O)CN2C(=O)NC(c3ccccc3)(c3ccccc3)C2=O)cc1OC	inactive
CCC(=O)NCC(=O)OCC(=O)c1ccccc1	inconclusive: 6.31 µM [inhibitor, single point]
COc1ccc(/C=N/Nc2ncccc2[N+](=O)[O-])c(OC)c1	inconclusive: 50.1 µM [inhibitor, partial curve]
COc1cccc(CNc2ccc3[nH]c(=O)[nH]c3c2)c1OCc1ccccc1Cl	inconclusive: 20 µM [inhibitor, full curve]
CC(C)c1ccc(Nc2nnns2)cc1	inconclusive: 17.8 µM [inhibitor, partial curve]
CCN(CC)CCOC(=O)C(Cc1cccc2ccccc12)CC1CCCO1 (configuration not stated)	inconclusive: 39.8 µM [inhibitor, partial curve]
CCOC(=O)c1c(-c2ccco2)csc1N	inconclusive: 10 µM [inhibitor, partial curve]
Clc1ccc(OCCCc2nc(-c3cccnc3)no2)c(Cl)c1	inactive
CC1CCN(CC(=O)NCCc2ccc(F)cc2)CC1	inconclusive: 70.8 µM [inhibitor, single point]
CCCCN1C2=C(C(=O)CC(C)(C)C2)C(c2ccccc2)C2=C1c1ccccc1C2=O (configuration not stated)	inconclusive: 25.1 µM [inhibitor, full curve, poor fit]
COc1ccc(NC(C)C(=O)Nc2cc(C(F)(F)F)ccc2N2CCOCC2)c(OC)c1 (configuration not stated)	inconclusive: 22.4 µM [inhibitor, full curve]
